ChEMBL document CHEMBL4888484, “Replenishing the malaria drug discovery pipeline: Screening and hit evaluation of the MMV Hit Generation Library 1 (HGL1) against asexual blood stage Plasmodium falciparum ,using a nano luciferase reporter read-out” (2022)
Among all 150,000 compounds or so, about 540 (0.36%) showed an effect of 50% or more. The list shows a part of the results. Where a SMILES comes first, the peptide text is derived from it. The star is where a group is joined. Cbz = O=C(OCc1ccccc1)*

What follows are compounds tested on Plasmodium falciparum (assay: Primary screen in NF54 nanoGlo assay, in single point, at 2uM, 72h; a lower Z score goes with more inhibition). Settings: timepoint 72 hour.
Format: functional, Erythrocyte

Row | Compound | % Inhibition [%] | Z score
1 | COCc1nc(Cc2noc([C@H]3CCO[C@@H]3c3cccnc3)n2)cs1 | -9 | 1.66
2 | CN(Cc1ncnn1CC(F)F)C(=O)c1nccc2ccsc12 | -7 | 1.05
3 | Cc1cc(C)c(Cc2noc(C[C@H](C)n3ccnc3)n2)c(C)c1 | -20 | 2.65
4 | O=C(NCc1nc(C(F)(F)F)no1)N1CCC(c2ccon2)CC1 | -18 | 2.35
5 | CC(C)c1nn(C)c(N(C)C)c1CN[C@H](c1nccn1C)C(C)C | 34 | -3.86
6 | Cc1nc(CNC(=O)c2ccccc2OC(C)C)c2n1CCCC2 | -5 | 0.61
7 | Cc1nc([C@H](C)NC(=O)N2CCC3(C=Cc4ccccc4O3)CC2)cs1 | 15 | -1.91
8 | CCC(=O)Nc1ccc(C)c(NC(=O)N2CCc3ccccc3C(C)(C)C2)c1 | 15 | -1.69
9 | COCC(C)(C)c1noc(-c2cccc3nn[nH]c23)n1 | -2 | 0.35
10 | CC1CCC(N(C(=O)CN2CC[C@@](O)(C(F)(F)F)C2)C2CC2)CC1 (some centres not stated) | -13 | 2
11 | CCC(C)C(NC(=O)C(C)NC(=O)CNC(=O)OCc1ccccc1)C(N)=O (stereo not drawn) (Cbz-Gly-Ala-Ile-NH2; configuration not given here) | -4 | 0.71
12 | Cn1cc(C2(c3cn(C)c4ccccc34)CCN(C(=O)[C@H]3CC(=O)N(c4ccc(F)cc4)C3)CC2)c2ccccc21 | -8 | 1.38
13 | CO[C@H]1C[C@@H](O)C12CCN(C(=O)c1cc(-c3cccs3)n(C)n1)CC2 | 2 | -0.33
14 | Cc1cccc(Cn2ncnc2CCc2cn[nH]c2)c1 | -3 | 0.47
15 | CN(Cc1ccn(-c2ccccc2)n1)C[C@H](O)Cn1cccn1 | -3 | 0.49
16 | O=C(c1ccc2nnnn2c1)N1CC[C@@]2(CCCN(CC3CCC3)C2=O)C1 | -8 | 1.58
17 | CN1C(=O)c2cc(NC(=O)c3cccc(S(=O)(=O)N(C)C)c3)ccc2Oc2ncccc21 | 8 | -1.04
18 | N#Cc1ccc(S(=O)(=O)N2CC(O)CC2C2CCCCC2)cc1 (configuration not stated) | -4 | 0.51
19 | Cc1ccc(-c2cccc(C(=O)NCC3(CN4CCN(C)CC4)CC3)c2)cn1 | -9 | 1.27
20 | Cc1ccccc1CN1CC[C@H](CNC(=O)Cc2c(F)cccc2Cl)C1 | 2 | -0.35
21 | COc1cc(CS(=O)(=O)N2CCN3C[C@@H](F)C[C@H]3C2)sn1 | -18 | 1.93

Row | Compound | % Inhibition [%] | Z score
22 | Cc1ccc(C(=O)N/C(=N/c2cc(Cl)ccc2C)NCc2ccccn2)cc1C | -2 | 0.16
23 | C[C@]1(c2ccc(Br)cc2)Nc2ccccc2-c2nnnn21 | 0 | -0.06
24 | Cc1oc(-c2ccccc2)nc1Cn1nc2ccccn2c1=O | -6 | 0.83
25 | CC(C)COc1ccc(C(=O)Nc2cccnc2-n2cccn2)cn1 | -6 | 1.09
26 | CC(=O)NC1(c2noc(C3C4CCCCC43)n2)CCCCC1 (configuration not stated) | 2 | -0.2
27 | CCN(CC)C(=O)CCN[C@@H](C(C)C)C1CCCCC1 | -1 | 0.1
28 | O=C(COC(=O)CCc1ccccc1)NCc1ccc2c(c1)OCO2 | -13 | 1.69
29 | O=C(O)C1C2CCC(CC2)C1C(=O)NCc1ccco1 (configuration not stated) | -9 | 1.84
30 | Cc1cccc(C(=O)N(CCN(C(=O)c2cccc(C)c2)c2ccccc2)c2ccccc2)c1 | -6 | 0.94
31 | O=C(NCC1(O)CCCCC1)[C@H]1CCN(Cc2ccccc2)C1 | -7 | 0.76
32 | CCCN1CCC(NC(=O)CC(C)C)CC1 | -8 | 0.88
33 | O=C(CCN(c1nc(-c2cccc(Br)c2)nc2ccccc12)C1CC1)Nc1ccc(F)cc1 | -2 | 0.29
34 | Cc1oncc1CNC(=O)c1ccc(OC(F)F)cn1 | -7 | 1.35
35 | O=C1CCC2(CCN(S(=O)(=O)Cc3ccccc3)CC2)N1Cc1ccc(F)cc1 | -9 | 1.31
36 | Cc1cnc([C@H](C)NC(=O)NC2CCC(c3ccc(F)cc3)CC2)s1 (some centres not stated) | -4 | 0.51
37 | Cc1c[nH]nc1C(=O)Nc1cnn(C)c1 | -16 | 1.58
38 | CCCc1nc2ncnn2c(O)c1NC(=O)Nc1cccc(C(F)(F)F)c1 | 1 | -0.24
39 | O=C(Cc1ccc(-c2ccccc2)cc1)N1CC[C@@]2(CCCNC2=O)C1 | -9 | 1.69
40 | O=C(Nc1ccc(CC(=O)N2CCOCC2)cc1)c1cc(Cl)ccc1Cl | -20 | 1.85
41 | CCC1(CC)CN(C(=O)c2cn(C)cn2)c2ccccc21 | -8 | 0.95
42 | c1ccc(OCCOCCN2CCC[C@H]2c2ccsc2)cc1 | -2 | 0.26

Row | Compound | % Inhibition [%] | Z score
43 | O=C(Nc1c(C(=O)Nc2ccc(F)c(F)c2)oc2ccccc12)c1cc2ccccc2o1 | -13 | 2.46
44 | CO[C@H]1CCOC[C@@H]1NC(=O)NC(C1CCCC1)C(F)(F)F (some centres not stated) | -4 | 0.55
45 | COCc1noc(CN2C[C@@H]3CC[C@H]2CN(Cc2c(C)noc2C)C3)n1 | -3 | 0.53
46 | CC[C@H]1CCCN1C(=O)Nc1cc(C)nn1Cc1ccc(OC)c(OC)c1 | -18 | 2.04
47 | Cc1ccc(NC(=O)N[C@@H]2CCCC[C@H]2NC(=O)OC(C)(C)C)c(C)c1 | -10 | 1.56
48 | CCOc1ccc2ncc(S(=O)(=O)c3ccc(Cl)cc3)c(N(CC)CC)c2c1 | -2 | 0.22
49 | Cc1nc(-c2c3n(c(=O)n(CC(=O)Nc4cccc(F)c4)c2=O)CCCC3)no1 | -3 | 0.56
50 | COCc1nc(CNc2ccc(-c3ccccc3)cn2)cs1 | -8 | 0.83
51 | Cc1cccc(CC(=O)N2CC[C@@H](NC(=O)c3cccnc3)[C@@H](CO)C2)c1 | -1 | 0.18
52 | Cc1ccc(-c2csc(Cc3nc(-c4ccccc4C)no3)n2)cc1C | 12 | -1.17
53 | CN(CC[C@H]1CCS(=O)(=O)C1)Cc1cscn1 | -15 | 2.8
54 | O=c1n(CCOc2ccc(F)cc2)nc2c(S(=O)(=O)N3CCCCCC3)cccn12 | 2 | -0.29
55 | COc1ccccc1-c1nc2ccc(C)cn2c1NC(=O)c1ccco1 | 5 | -0.69
56 | CCCc1cnc(NC(=O)c2cnn(C)c2C)s1 | 31 | -0.68
57 | CN1CCOC(C(N)c2ccc(Cl)cc2)C1 (configuration not stated) | 1 | -0.13
58 | CCOc1ccc(-c2cc(C(=O)NC[C@@H](c3ccc(C)cc3)N3CCCC3)no2)cc1 | 10 | -1.21
59 | CS(=O)(=O)N1C[C@H]2CC[C@@H](C1)N(C(=O)c1cccc(C(F)(F)F)c1)C2 | -2 | 0.29
60 | COc1ccc(-n2nc3nc(NCCN4CCOCC4)nc(-c4ccc(F)c(Cl)c4)c3c2N)cc1 | -13 | 1.41
61 | O=C(C1CCCCC1)N1C[C@H](c2nc(-c3ccccc3)no2)C2(CCOCC2)C1 | -1 | 0.19
62 | NC(=O)[C@@H](c1ccccc1)N1CCN(C(=O)c2cc[nH]c2C2CC2)CC1 | -13 | 2.45
63 | CC(C)CN1C(=O)C[C@H](Nc2ccc3c(c2)OCO3)C1=O | -2 | 0.46

Row | Compound | % Inhibition [%] | Z score
64 | CC[C@](C)(CO)CNc1cccc(C)n1 | -21 | 3.07
65 | Cc1ccc(OCC(=O)N[C@@H](C)c2ccco2)cn1 | -15 | 1.35
66 | Cc1cc(CN(C)C(=O)[C@@H](Nc2ccc(C(F)(F)F)cc2Cl)C(C)C)no1 | -9 | 0.84
67 | Cc1cc(C(=O)N[C@H]2CCCNC2=O)c(O)cn1 | 3 | -0.55
68 | O=C1NC(=O)[C@]2(CCOc3ccc(F)cc32)N1 | 35 | -4.46
69 | O=S1(=O)CCC[C@H](CS(=O)(=O)Cc2noc(C3CCCCC3)n2)C1 | -1 | 0.1
70 | Cc1nn(CC(=O)N[C@@H](C)C2=CCCCC2)c(=O)n1CCc1ccccc1 | 2 | -0.24
71 | CC(=O)NCC1=CCCN(CC(=O)N2CCc3ccccc32)C1 | -7 | 0.84
72 | C[C@@H]1COCCN1C(=O)CCc1c[nH]cn1 | -9 | 1.59
73 | CC1CCC(C(N)=O)CN1C(=O)c1cc(C2CC2)on1 (configuration not stated) | 8 | -1.01
74 | CCOc1cc(C(=O)N2CCO[C@H](c3ccco3)C2)on1 | -6 | 0.8
75 | COCCN(CC(=O)Nc1nc(-c2ccc(Cl)cc2)cn1-c1cc(OC)cc(OC)c1)C(=O)CC(C)C | -6 | 1.12
76 | CC(C)Cc1nc(C(=O)N2CCOC[C@@H](C3CCC3)C2)cs1 | -3 | 0.5
77 | Cn1cnc2c1CCN(C(=O)Cc1cc3ccccc3n1C)C21CCOCC1 | 1 | -0.15
78 | COc1ccc(NC(C)=O)cc1NC(=O)CC[C@@H](C)[C@H]1CC[C@H]2[C@@H]3[C@H](O)C[C@@H]4C[C@H](O)CC[C@]4(C)[C@H]3C[C@H](O)[C@]12C | 24 | -3.94
79 | CCOc1ncccc1-c1nccc(OC)n1 | 0 | 0.03
80 | Cc1ccc(F)c(CNC(=O)c2cc(CCc3ccccc3)no2)c1F | -2 | 0.4
81 | O=C1C[C@H](N2CCCCCC2)C(=O)N1c1ccc(Oc2ccccc2)cc1 | -12 | 1.53
